According to a collection of fitness landscapes (doi:10.1038/s41467-024-54723-y):
Whole data set: some 18,000 sequences, median “TetR repression strength (sort-seq, GFP reporter)” near 0.23, cut for the highest 2% near 0.68. Some of the results follow.

Target: TetR (class B, Tn10) (UniProt P04483)
Test: TetR repression strength (sort-seq, GFP reporter) (relative to tetO2 = 1); higher = stronger repression
Conditions: E. coli
Procedure, shortened: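 Repression strength is the top bin index plus one minus the read-weighted mean bin, relative to the unaltered operator's value. A low-copy library in E. coli SIG10-MAX randomized eight operator positions between a constitutive promoter and sfGFP, with TetR expressed constitutively; cells grew 5 h at 37 °C in LB with 50 µg/mL chloramphenicol and 10^6 were FACS-sorted into 13 bins that were each Illumina-sequenced. Three independent transformations were averaged, keeping only members with ≥30 reads in all replicates and CV ≤0.5.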

Sequence of UniProt P04483 (P04483 whole entry): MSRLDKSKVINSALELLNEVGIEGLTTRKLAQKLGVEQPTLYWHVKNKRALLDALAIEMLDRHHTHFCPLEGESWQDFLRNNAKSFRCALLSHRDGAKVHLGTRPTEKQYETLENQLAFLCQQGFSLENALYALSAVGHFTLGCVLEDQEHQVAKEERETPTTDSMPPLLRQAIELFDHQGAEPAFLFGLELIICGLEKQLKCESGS

Sequence	TetR repression strength
TCCCATGAAGTGCCCGAGA	0.14
TCCCACGCAGTCGCTGAGA	0.306
TCCCTATCAGTCTCTGAGA	0.311
TCCCGATAAGTGTTGGAGA	0.183
TCCCAGGGAGTGGCGGAGA	0.291
TCCCATGTAGTGATCGAGA	0.159
TCCCGAAGAGTATTTGAGA	0.307
TCCCTCGGAGTTGAAGAGA	0.308
TCCCTATGAGTGATAGAGA	0.765
TCCCCGGGAGTATACGAGA	0.189
TCCCAACTAGTGGGTGAGA	0.137
TCCCGTACAGTCTACGAGA	0
TCCCGTAGAGTTGTAGAGA	0.304
TCCCGGGAAGTTGCAGAGA	0.365
TCCCCGGGAGTCGCGGAGA	0.355
TCCCGTGAAGTCGCGGAGA	0.0919
TCCCACACAGTGAAAGAGA	0.486
TCCCTGACAGTCACAGAGA	0.194
TCCCCTTGAGTGCTGGAGA	0.243
TCCCTGTAAGTGTGAGAGA	0.159
TCCCCATAAGTGGCGGAGA	0.106
TCCCTAATAGTGGTGGAGA	0.4
TCCCCTTGAGTTTAGGAGA	0.245
TCCCTAAAAGTGTGCGAGA	0.279
TCCCGAAAAGTTGTGGAGA	0.0642
TCCCTCTTAGTGCTCGAGA	0.286

Sequence	TetR repression strength
TCCCGCGGAGTCCATGAGA	0.0415
TCCCGATGAGTGAGTGAGA	0.39
TCCCGAGCAGTGGCGGAGA	0.172
TCCCCGTTAGTGTAAGAGA	0.0309
TCCCTCTGAGTTATGGAGA	0.0788
TCCCGAGCAGTACGAGAGA	0.305
TCCCGTGAAGTTGGTGAGA	0.209
TCCCATAAAGTATCGGAGA	0.289
TCCCTTTCAGTTCTGGAGA	0.201
TCCCGTACAGTAGGGGAGA	0.172
TCCCGGAAAGTTACAGAGA	0.259
TCCCAGGGAGTGTGTGAGA	0.317
TCCCAGAAAGTACCCGAGA	0.265
TCCCCGGCAGTAGAAGAGA	0.146
TCCCGGGAAGTGGATGAGA	0.142
TCCCGTGCAGTAATTGAGA	0.35
TCCCGTCCAGTTGAGGAGA	0.155
TCCCGGCCAGTCGCGGAGA	0.305
TCCCGTAGAGTTAAAGAGA	0.314
TCCCCTTAAGTTGCAGAGA	0.31
TCCCATACAGTAACTGAGA	0.277
TCCCCTGGAGTGAGTGAGA	0.163
TCCCGACTAGTCAGGGAGA	0.515
TCCCTTCTAGTTACTGAGA	0.464
TCCCACATAGTAGTGGAGA	0.185
TCCCCGATAGTCGGTGAGA	0.204

Sequence	TetR repression strength
TCCCGCAAAGTGGGCGAGA	0.191
TCCCAGAGAGTGCTTGAGA	0.167
TCCCAGTGAGTTGTAGAGA	0.167
TCCCGAGGAGTCGAAGAGA	0.177
TCCCTGGGAGTAGTTGAGA	0.0801
TCCCGAGTAGTGACGGAGA	0.125
TCCCGCACAGTTGTGGAGA	0.219
TCCCTATCAGTTATAGAGA	0.809
TCCCGCTCAGTAAAGGAGA	0.622
TCCCCCTTAGTACTGGAGA	0.285
TCCCATGAAGTTGTGGAGA	0.166
TCCCAGATAGTCGTTGAGA	0.287
TCCCATGGAGTACTGGAGA	0.0311
TCCCTGCCAGTGAGGGAGA	0.234
TCCCTTCAAGTGAAAGAGA	0.22
TCCCGAGGAGTGTGGGAGA	0.212
TCCCTCCTAGTGGCGGAGA	0.417
TCCCATTTAGTCTATGAGA	0.279
TCCCTAAGAGTGATCGAGA	0.362
TCCCTTATAGTCTTAGAGA	0.235
TCCCGGGGAGTCAGCGAGA	0.375
TCCCCGAGAGTTGAAGAGA	0.192
TCCCATTGAGTCCTAGAGA	0.304
TCCCTATTAGTGTGTGAGA	0.219
TCCCAGGGAGTGCGGGAGA	0.134
TCCCAAAGAGTTCTCGAGA	0.321

Sequence	TetR repression strength
TCCCAGGGAGTTGGCGAGA	0.244
TCCCACGCAGTGTGTGAGA	0.207
TCCCATAGAGTTGATGAGA	0.145
TCCCCCTAAGTGGCGGAGA	0.247
TCCCTGGTAGTCAGGGAGA	0.171
TCCCTTGGAGTCGCGGAGA	0.305
TCCCGCGAAGTCATCGAGA	0.202
TCCCTTCGAGTTCAGGAGA	0.198
TCCCCCTGAGTTTCGGAGA	0.199
TCCCCCGAAGTGGGGGAGA	0.216
TCCCAACGAGTGCAAGAGA	0.332
TCCCTGGAAGTCTTTGAGA	0.393
TCCCGCAGAGTGCTCGAGA	0.0447
TCCCTCTAAGTGTCCGAGA	0.512
TCCCCTGGAGTCGTAGAGA	0.288
TCCCAGCGAGTTGGGGAGA	0.273
TCCCGGCAAGTGCTGGAGA	0.0912
TCCCGCCTAGTGAGGGAGA	0.193
TCCCAGCTAGTGCGCGAGA	0.414
TCCCACTCAGTGCGGGAGA	0.213
TCCCGGCTAGTCAATGAGA	0.355
TCCCTATCAGTGCTGGAGA	0.86
TCCCGCGGAGTTTTAGAGA	0.203
TCCCTTCAAGTTTCAGAGA	0.837
TCCCGTTTAGTAACGGAGA	0.149
TCCCCGAGAGTATTAGAGA	0.176

Sequence	TetR repression strength
TCCCCGTCAGTAACTGAGA	0.281
TCCCGGTGAGTGGTCGAGA	0.181
TCCCAGGAAGTGCACGAGA	0.275
TCCCTGGCAGTTGCGGAGA	0.282
TCCCTGGGAGTTTACGAGA	0.173
TCCCCACAAGTCACTGAGA	0.311
TCCCTCTAAGTCGTCGAGA	0.207
TCCCAGAGAGTCCCCGAGA	0
TCCCCAATAGTCCTAGAGA	0.285
TCCCGTGAAGTCGATGAGA	0.187
TCCCAGACAGTTCAAGAGA	0.365
TCCCGTCGAGTGTCAGAGA	0.263
TCCCCTGCAGTGCAAGAGA	0.618
TCCCTCGAAGTGGAGGAGA	0.0933
TCCCGACCAGTCATTGAGA	0.292
TCCCGCGCAGTAACGGAGA	0.242
TCCCCTTGAGTCCTGGAGA	0.463
TCCCTTCCAGTTTACGAGA	0.41
TCCCCGCAAGTTATCGAGA	0.36
TCCCTTCGAGTGGCAGAGA	0.0926
TCCCTCAGAGTTGCTGAGA	0.245
TCCCGAACAGTCCTCGAGA	0.197
TCCCGAGCAGTATTTGAGA	0.374
TCCCTTACAGTGTGTGAGA	0.306
TCCCGAGAAGTGCAGGAGA	0.173
TCCCACTAAGTGCCGGAGA	0.187

Sequence	TetR repression strength
TCCCGAGAAGTCCATGAGA	0.207
TCCCGCCAAGTGCGGGAGA	0.218
TCCCGGGAAGTAAGCGAGA	0.556
TCCCCGGAAGTTCTAGAGA	0.315
TCCCTTGCAGTGCCAGAGA	0.677
TCCCAATGAGTCGGCGAGA	0.222
TCCCTCCCAGTGCGTGAGA	0.168
TCCCGGTAAGTGTGCGAGA	0.136
TCCCCGTAAGTCCGTGAGA	0.522
TCCCTGAGAGTATGTGAGA	0.282
TCCCGTCAAGTCAATGAGA	0.382
TCCCCGGTAGTCGCTGAGA	0.136
TCCCTAGTAGTGGTTGAGA	0.285
TCCCAGTGAGTGTCCGAGA	0.257
TCCCTGTTAGTCGGAGAGA	0.109
TCCCATTTAGTCCAAGAGA	0.28
TCCCGTTAAGTTGGGGAGA	0.173
TCCCCGTCAGTAGGGGAGA	0.146
TCCCCTGTAGTATGAGAGA	0.383
TCCCTGCAAGTTTGAGAGA	0.161
TCCCTGGTAGTGACCGAGA	0.116
TCCCCTTGAGTTACCGAGA	0.307
TCCCAATTAGTGCGAGAGA	0.333
TCCCTACGAGTGAGTGAGA	0.203
TCCCAGACAGTGGGGGAGA	0.185
TCCCACGTAGTGATTGAGA	0.174

Sequence	TetR repression strength
TCCCCTGCAGTTGAGGAGA	0.248
TCCCGTGTAGTTGCAGAGA	0.976
TCCCAGGTAGTGCAAGAGA	0.363
TCCCGCTTAGTTAATGAGA	0.539
TCCCTCCAAGTTGCCGAGA	0.341
TCCCCATTAGTGCTTGAGA	0.282
TCCCCACCAGTATATGAGA	0.356
TCCCATAGAGTTCTTGAGA	0.139
TCCCGGTTAGTTATGGAGA	0.282
TCCCCGCGAGTTGTTGAGA	0.333
TCCCATTAAGTAACGGAGA	0.00534
TCCCTGTTAGTAACGGAGA	0.112
TCCCTTTGAGTAAGCGAGA	0.0415
TCCCCGACAGTTTGTGAGA	0.191
TCCCGTCCAGTAGAAGAGA	0.126
TCCCAGGAAGTCAGGGAGA	0.235
TCCCAAAGAGTTAGTGAGA	0.218
TCCCTGGAAGTGGAGGAGA	0.125
TCCCTCTGAGTTGTGGAGA	0.401
TCCCTACCAGTATGAGAGA	0.405
TCCCGTGAAGTTGATGAGA	0.0259
TCCCTGGAAGTGCCCGAGA	0.307
TCCCTTGGAGTTGCAGAGA	0.266
TCCCATCTAGTGGCGGAGA	0.679
TCCCTTGAAGTTGATGAGA	0.438
TCCCACTGAGTGGAGGAGA	0.129

Sequence	TetR repression strength
TCCCAATAAGTGAGTGAGA	0.382
TCCCACGGAGTGTGCGAGA	0.0291
TCCCCAGTAGTATTGGAGA	0.377
TCCCTTGTAGTCGAAGAGA	0.314
TCCCGATGAGTACGCGAGA	0.0789
TCCCTGTTAGTAGGTGAGA	0.115
TCCCAAAAAGTCCTCGAGA	0.374
TCCCGCACAGTGAGGGAGA	0.135
TCCCGGGAAGTTGAGGAGA	0.228
TCCCCGTTAGTGCATGAGA	0.258
TCCCGCCGAGTTGTAGAGA	0.276
TCCCATATAGTTTAAGAGA	0.207
TCCCCGGCAGTGGCTGAGA	0.293
TCCCGCTCAGTGTTCGAGA	0.342
TCCCTCACAGTCAGTGAGA	0.302
TCCCTCATAGTCAATGAGA	0.262
TCCCCCCTAGTCACAGAGA	0.338
TCCCAGCTAGTGAGTGAGA	0.716
TCCCCAACAGTAATTGAGA	0.307
TCCCTCATAGTGGGAGAGA	0.106
TCCCTCCCAGTGGCAGAGA	0.291
TCCCAAGGAGTGGTGGAGA	0.227
